Laboratory results as given in PubChem BioAssay (NCI).
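Test compounds were applied to cells in 96-well plates for 48 hours at 5 doses. Abbreviation: GI50, concentration required for 50% inhibition of growth. The concentration for full growth arrest is given as TGI.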 Active and inactive are the calls of the source. No stated cut-off is given here; in the data, active means GI50 below about 0.43 µM; inactive means the rest.

system: NCI-H322M lung; test: DTP human tumour cell line panel, 48 h

| SMILES | TGI [µM] | GI50 [µM] | outcome |
| --- | --- | --- | --- |
| Cc1ccccc1NC(=O)/C(=N/NC(=O)CC#N)C1C(=O)N(c2ccccc2)N=C1N (configuration not stated) | > 100 | – | – |
| C=C1CC2(CCOc3ccc(Cl)cc32)OC1=O (configuration not stated) | 26 | – | – |
| Clc1ccccc1/C=C/c1ccnc2ccccc12 | 29.7 | – | – |
| COc1ccc(/C=C/C2C(C#N)=C(N)OC3=C2C(=O)CCC3)cc1 (configuration not stated) | 83.3 | 30.5 | – |
| Clc1c2ncccc2cc2n[nH]nc12 | > 100 | – | – |
| COC(=O)C(=O)C(C(=O)C(=O)Nc1ccc(OC)cc1[N+](=O)[O-])c1nc2ccc([N+](=O)[O-])cc2[nH]c1=O (configuration not stated) | > 100 | – | – |
| Fc1cccc(C2SCC3=Nc4ccccc4CN32)c1 (configuration not stated) | > 100 | – | – |
| CC(C)NC(C)C(C)c1ccccc1 (configuration not stated) | > 100 | – | – |
| CCN(CC)CC(O)CNc1c2ccc(Cl)cc2nc2ccc(OC)cc12 (configuration not stated) | 2.43 | 0.508 | – |
| CNCCCNc1nc2ccccc2c2c(=O)c3cc(F)ccc3sc12 | 2.92 | 1.58 | – |
| C[C@@H](O)CCC(=O)c1ccoc1 | > 100 | – | – |
| COc1ccc(-c2cc(=O)c3c(O)cc(O)cc3o2)cc1OC | > 100 | – | – |
| O=C(Nc1ccc(Cl)cc1)Nc1ccc(Cl)c(C(F)(F)F)c1 | 14.5 | 3.47 | – |
| C/C(CC(=O)Nc1ccc(Cl)c(Cl)c1)=N/NC(=O)C[N+](C)(C)C | > 100 | – | – |
| COc1ccc(-c2ccc(-c3ccc(C(=N)N)c(F)c3)s2)cc1 | 2.35 | 0.847 | – |
| O=C1CC2CC(O1)[C@H]1O[C@H]1C2 (some centres not stated) | – | – | inactive |
| Cc1[nH]c(=O)nc2nc3ccc(Cl)cc3c(N(CCO)CCO)c12 | > 100 | – | – |
| O=C1/C=C/[C@@H](O)[C@@H]2C[C@@H](O)C[C@H]2/C=C/CCC[C@H](CCc2ccccc2)O1 | 68.7 | 0.0268 | – |
| Nc1c(C(=O)c2cccc(OC[C@@H](O)CO)c2)cnn1-c1ccc(F)cc1 | > 25 | > 25 | – |
| COc1ccc(C(=O)c2sc3nc4c(cc3c2N)CCCC4)cc1OC | 21.6 | 6.35 | – |
| COc1cc2c3c(n(CCCNC4=NCCS4)c(=O)c2cc1OC)-c1cc2c(cc1C3=O)OCO2 | 3.79 | 0.978 | – |

| SMILES | TGI [µM] | GI50 [µM] | outcome |
| --- | --- | --- | --- |
| CC1(C)CC[C@]2(C(=O)Nc3ccccn3)CC[C@]3(C)C(=CC[C@@H]4[C@@]5(C)C/C(=C/c6ccncc6)C(=O)C(C)(C)[C@@H]5CC[C@]43C)[C@@H]2C1 | > 100 | 5.02 | – |
| N#CNCC(COCc1ccccc1)c1ccccc1 (configuration not stated) | > 100 | – | – |
| CCOC(=O)/C(C#N)=C\C=C(\Sc1nc2ccccc2s1)c1ccc(Cl)cc1 | > 100 | 86 | – |
| C=C(C(=O)OC)N1C(=O)CC(C)C1=O (configuration not stated) | > 100 | – | – |
| CCCCCCN1CCc2c(C)c(C#N)c3nc4ccccc4n3c21 | > 100 | – | – |
| OC(CC(CC(O)(C(F)(F)F)C(F)(F)F)=NN=C(CC(O)(C(F)(F)F)C(F)(F)F)CC(O)(C(F)(F)F)C(F)(F)F)(C(F)(F)F)C(F)(F)F | > 10 | – | – |
| O=C(O)c1ccc(NCc2nc3cc(Cl)c(Cl)cc3[nH]2)cc1 | > 100 | > 100 | – |
| Cc1c(C(=O)O)n2c(C)nnc2c2ccccc12 | > 100 | – | – |
| COc1ccc(C2C=C(c3ccc(OC)c(OC)c3)N=C3SC=CN32)c(Br)c1 (configuration not stated) | 25.1 | 10.7 | – |
| CCOP(=O)(O)CC1OC(CO)C(O)C1O (configuration not stated) | > 100 | – | – |
| Cc1cc(N(CCC#N)CCC#N)ccc1/C=N/NC(=O)c1ccccc1 | > 100 | – | – |
| COC(=O)/C=C\[C@H]1[C@H](C)N1S(=O)(=O)c1ccc(C)cc1 (some centres not stated) | > 100 | – | – |
| CC(=O)OC1C[C@@H](C)C2(CC(c3ccoc3)OC2=O)C2CCC(O)C3(CO3)C12CO (some centres not stated) | > 100 | – | – |
| Cc1ccc(NC(=O)CC(=O)N2N=C(N(C)c3ccccc3)CC2c2ccccc2)cc1 (configuration not stated) | > 100 | – | – |
| Cc1oc2c(C(=O)N/N=C\c3ccc(O)cc3O)c[nH]c2c1C | > 49.4 | 0.816 | – |
| CCCCCCCCCCCCCC(=O)NCO | > 100 | – | – |
| CC(=O)Nc1ccc(C2C(C(=O)Nc3ccccc3)=C(C)NC(C)=C2C(=O)Nc2ccccc2)cc1 | > 100 | – | – |
| COC(=O)C1[C@@H](C(=O)OC)C(=O)O[C@H]1c1cc(OC)c(OC)c(OC)c1 (some centres not stated) | > 100 | – | – |
| COc1ccc(/C=C2\COc3ccc(O)c(O)c3C2=O)cc1 | > 100 | 3.27 | – |
| O=c1c2ccccc2n2c(-c3ccc(O)cc3)nnc2n1-c1ccccc1 | 49.5 | – | – |
| COC1O[C@@H]2COC(C)(C)O[C@@H]2C(=O)N1Nc1ccc([N+](=O)[O-])cc1 (some centres not stated) | > 100 | – | – |
